# Data reported in article PMC9911399, “Two distinct binding modes provide the RNA-binding protein RbFox with extraordinary sequence specificity”.
# Changes are numbered by the printed parent chain; changes in the protein carry UniProt numbers. This is one part of the list.
# T1: RBFOX1 RRM (Homo sapiens, UniProt Q9NWB1 109-208)
# T1 sequence: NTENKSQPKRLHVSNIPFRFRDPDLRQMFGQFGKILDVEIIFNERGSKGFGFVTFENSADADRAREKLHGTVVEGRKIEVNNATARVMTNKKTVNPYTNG
# B1: AAUUUGG (DNA:RNA)
# RNA: GGGAGACCGGAAUUCAGAUUGUCCAAUUUGGUUAAAUCCCGUCGUAGCCACCA
# DNA 1: CAATCTGAATTCCGGTCTCCC
# DNA 2: TGGTGGCTACGACGGGATT
# B2: CGUCAAG (DNA:RNA)
# RNA: B1 RNA with A25C, A26G, U28C, U29A, G30A
# DNA 1: CAATCTGAATTCCGGTCTCCC
# DNA 2: TGGTGGCTACGACGGGATT
# B3: ACGCGAC (DNA:RNA)
# RNA: B1 RNA with A26C, U27G, U28C, U29G, G30A, G31C
# DNA 1: CAATCTGAATTCCGGTCTCCC
# DNA 2: TGGTGGCTACGACGGGATT
# B4: CAGAGCG (DNA:RNA)
# RNA: B1 RNA with A25C, U27G, U28A, U29G, G30C
# DNA 1: CAATCTGAATTCCGGTCTCCC
# DNA 2: TGGTGGCTACGACGGGATT
# B5: GUCAGUA (DNA:RNA)
# RNA: GGGAGACCGGAAUUCAGAUUGUCCGUCAGUAUUAAAUCCCGUCGUAGCCACCA
# DNA 1: CAATCTGAATTCCGGTCTCCC
# DNA 2: TGGTGGCTACGACGGGATT
# B6: CGUAGCG (DNA:RNA)
# RNA: B1 RNA with A25C, A26G, U28A, U29G, G30C
# DNA 1: CAATCTGAATTCCGGTCTCCC
# DNA 2: TGGTGGCTACGACGGGATT
# B7: ACUAGUG (DNA:RNA)
# RNA: B1 RNA with A26C, U28A, U29G, G30U
# DNA 1: CAATCTGAATTCCGGTCTCCC
# DNA 2: TGGTGGCTACGACGGGATT
# B8: AGACGUU (DNA:RNA)
# RNA: B5 RNA with G25A, U26G, C27A, A28C, A31U
# DNA 1: CAATCTGAATTCCGGTCTCCC
# DNA 2: TGGTGGCTACGACGGGATT
# B9: AUAUUGU (DNA:RNA)
# RNA: B1 RNA with A26U, U27A, G31U
# DNA 1: CAATCTGAATTCCGGTCTCCC
# DNA 2: TGGTGGCTACGACGGGATT
# B10: UCUAUCG (DNA:RNA)
# RNA: B1 RNA with A25U, A26C, U28A, G30C
# DNA 1: CAATCTGAATTCCGGTCTCCC
# DNA 2: TGGTGGCTACGACGGGATT
# B11: UCAAGUC (DNA:RNA)
# RNA: B5 RNA with G25U, U26C, C27A, A31C
# DNA 1: CAATCTGAATTCCGGTCTCCC
# DNA 2: TGGTGGCTACGACGGGATT
# B12: CUUUCCC (DNA:RNA)
# RNA: B1 RNA with A25C, A26U, U29C, G30C, G31C
# DNA 1: CAATCTGAATTCCGGTCTCCC
# DNA 2: TGGTGGCTACGACGGGATT
# B13: AAGAUAA (DNA:RNA)
# RNA: B1 RNA with U27G, U28A, G30A, G31A
# DNA 1: CAATCTGAATTCCGGTCTCCC
# DNA 2: TGGTGGCTACGACGGGATT
# B14: UUCAUAC (DNA:RNA)
# RNA: B5 RNA with G25U, G29U, U30A, A31C
# DNA 1: CAATCTGAATTCCGGTCTCCC
# DNA 2: TGGTGGCTACGACGGGATT
# B15: CCAGUGA (DNA:RNA)
# RNA: B1 RNA with A25C, A26C, U27A, U28G, G31A
# DNA 1: CAATCTGAATTCCGGTCTCCC
# DNA 2: TGGTGGCTACGACGGGATT
# B16: CUUUUCU (DNA:RNA)
# RNA: B1 RNA with A25C, A26U, G30C, G31U
# DNA 1: CAATCTGAATTCCGGTCTCCC
# DNA 2: TGGTGGCTACGACGGGATT
# B17: CGGGAAA (DNA:RNA)
# RNA: B5 RNA with G25C, U26G, C27G, A28G, G29A, U30A
# DNA 1: CAATCTGAATTCCGGTCTCCC
# DNA 2: TGGTGGCTACGACGGGATT
# B18: GUCCAAG (DNA:RNA)
# RNA: B5 RNA with A28C, G29A, U30A, A31G
# DNA 1: CAATCTGAATTCCGGTCTCCC
# DNA 2: TGGTGGCTACGACGGGATT
# B19: GACGCUU (DNA:RNA)
# RNA: B5 RNA with U26A, A28G, G29C, A31U
# DNA 1: CAATCTGAATTCCGGTCTCCC
# DNA 2: TGGTGGCTACGACGGGATT
# B20: GACGAAG (DNA:RNA)
# RNA: B1 RNA with A25G, U27C, U28G, U29A, G30A
# DNA 1: CAATCTGAATTCCGGTCTCCC
# DNA 2: TGGTGGCTACGACGGGATT
# B21: AUCCGCA (DNA:RNA)
# RNA: B5 RNA with G25A, A28C, U30C
# DNA 1: CAATCTGAATTCCGGTCTCCC
# DNA 2: TGGTGGCTACGACGGGATT
# B22: AGAGUAA (DNA:RNA)
# RNA: B1 RNA with A26G, U27A, U28G, G30A, G31A
# DNA 1: CAATCTGAATTCCGGTCTCCC
# DNA 2: TGGTGGCTACGACGGGATT
# B23: UGGCGCU (DNA:RNA)
# RNA: B5 RNA with G25U, U26G, C27G, A28C, U30C, A31U
# DNA 1: CAATCTGAATTCCGGTCTCCC
# DNA 2: TGGTGGCTACGACGGGATT
# B24: GUAACGA (DNA:RNA)
# RNA: B5 RNA with C27A, G29C, U30G
# DNA 1: CAATCTGAATTCCGGTCTCCC
# DNA 2: TGGTGGCTACGACGGGATT
# B25: ACACAGU (DNA:RNA)
# RNA: B1 RNA with A26C, U27A, U28C, U29A, G31U
# DNA 1: CAATCTGAATTCCGGTCTCCC
# DNA 2: TGGTGGCTACGACGGGATT
# B26: AAAUGAU (DNA:RNA)
# RNA: B1 RNA with U27A, U29G, G30A, G31U
# DNA 1: CAATCTGAATTCCGGTCTCCC
# DNA 2: TGGTGGCTACGACGGGATT
# B27: AUUAAUG (DNA:RNA)
# RNA: B1 RNA with A26U, U28A, U29A, G30U
# DNA 1: CAATCTGAATTCCGGTCTCCC
# DNA 2: TGGTGGCTACGACGGGATT
# B28: CACGCUU (DNA:RNA)
# RNA: B5 RNA with G25C, U26A, A28G, G29C, A31U
# DNA 1: CAATCTGAATTCCGGTCTCCC
# DNA 2: TGGTGGCTACGACGGGATT
# B29: CGCAGGC (DNA:RNA)
# RNA: B5 RNA with G25C, U26G, U30G, A31C
# DNA 1: CAATCTGAATTCCGGTCTCCC
# DNA 2: TGGTGGCTACGACGGGATT
# B30: UUCUGUA (DNA:RNA)
# RNA: B5 RNA with G25U, A28U
# DNA 1: CAATCTGAATTCCGGTCTCCC
# DNA 2: TGGTGGCTACGACGGGATT
# B31: UUGCGCU (DNA:RNA)
# RNA: B5 RNA with G25U, C27G, A28C, U30C, A31U
# DNA 1: CAATCTGAATTCCGGTCTCCC
# DNA 2: TGGTGGCTACGACGGGATT
# Biological target: T1, RBFOX1 RRM
# Assay: EMSA; HiTS-Eq, 1 nM pool, 10 min; buffer printed only for the single-RNA assays: 10 mM Tris pH 7.5, 150 mM NaCl, 3.4 mM EDTA, 0.001% NP-40, 30 C
# Settings: tags: His6 N-terminal (pET28a); label: 5' 32P
# Outline: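 Relative association constants, normalised to the cognate motif, were derived by comparing read counts of each RNA species with those of the control reaction. The RNA sequenced was the free fraction, separated by 8% native PAGE after a 10 min equilibration in 50 µL of 1 nM 5′-radiolabelled RNA (7 randomized nucleotides) with increasing concentrations of purified wild-type or mutant RbFox RRM.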
row,Binder,binding signal
1,B1,0.0081 KA relative to UGCAUGU
2,B2,0.0065 KA relative to UGCAUGU
3,B3,0.00527 KA relative to UGCAUGU
4,B4,0.0122 KA relative to UGCAUGU
5,B5,0.0111 KA relative to UGCAUGU
6,B6,0.0129 KA relative to UGCAUGU
7,B7,0.0109 KA relative to UGCAUGU
8,B8,0.00953 KA relative to UGCAUGU
9,B9,0.00748 KA relative to UGCAUGU
10,B10,0.00758 KA relative to UGCAUGU
11,B11,0.00662 KA relative to UGCAUGU
12,B12,0.00374 KA relative to UGCAUGU
13,B13,0.000269 KA relative to UGCAUGU
14,B14,0.00199 KA relative to UGCAUGU
15,B15,0.00741 KA relative to UGCAUGU
16,B16,0.0114 KA relative to UGCAUGU

row,Binder,binding signal
1,B17,0.022 KA relative to UGCAUGU
2,B18,0.0109 KA relative to UGCAUGU
3,B19,0.0162 KA relative to UGCAUGU
4,B20,0.0143 KA relative to UGCAUGU
5,B21,0.00554 KA relative to UGCAUGU
6,B22,0.00465 KA relative to UGCAUGU
7,B23,0.0198 KA relative to UGCAUGU
8,B24,0.0122 KA relative to UGCAUGU
9,B25,0.000421 KA relative to UGCAUGU
10,B26,0.00436 KA relative to UGCAUGU
11,B27,0.00405 KA relative to UGCAUGU
12,B28,0.00679 KA relative to UGCAUGU
13,B29,0.015 KA relative to UGCAUGU
14,B30,0.00899 KA relative to UGCAUGU
15,B31,0.0189 KA relative to UGCAUGU
